The list shows a part of the results. At the low end of the ranking the order means little.
target: SIX1 homeodomain (reference allele) (UniProt Q15475); experiment: universal protein binding microarray; conditions: Universal all-10-mer PBM (8x60K, AMADID 030236), 300 nM GST-tagged protein, Alexa Fluor 488 anti-GST; buffer, salt, pH and temperature not stated; high values mean tight binding; most listed sequences are background and not binding sites; double strand, one strand shown

Sequence	binding signal
AACCTATA	0.205 E-score
CATCTCCG	0.149 E-score
CTCCCAGA	0.00686 E-score
GACTAGGA	-0.188 E-score
ACAAAGTG	0.0436 E-score
AATTGGGC	-0.198 E-score
AATTGCCT	-0.127 E-score
AAATCGTC	-0.0608 E-score
CATGAAAC	0.0269 E-score
AAAGGTCC	-0.237 E-score
CCCGTATC	0.469 E-score
CGTGCTAG	0.00861 E-score
ACTCTCTG	-0.0582 E-score
GGCTTTTA	-0.177 E-score
ATGCACTG	-0.0929 E-score
AAAAAAGG	-0.113 E-score
AGTTCCCG	-0.264 E-score
ACGTACCT	0.0156 E-score
TCAGTCGA	-0.147 E-score
AAAACCTT	-0.209 E-score
AAGGGTAA	0.173 E-score
AGAGTTGA	0.103 E-score
CGTTAAGA	-0.0997 E-score
CTAAGAAA	-0.157 E-score
AGAAGCTG	-0.139 E-score

Sequence	binding signal
AAAATTCT	-0.319 E-score
AGTGCTGG	-0.157 E-score
AAGGTTCA	-0.0406 E-score
CAGTCACC	-0.153 E-score
AAGACGTG	-0.064 E-score
ACGGTCCA	-0.375 E-score
ATGCGAAA	-0.127 E-score
TATGCTAA	0.0443 E-score
GCCATGAC	-0.14 E-score
AATGGCGC	-0.345 E-score
AATTCCAG	-0.107 E-score
AGGTATGG	0.177 E-score
CCTCTGAC	0.036 E-score
CACGCCCG	0.123 E-score
GGGAAGAC	-0.19 E-score
CCCTAATA	0.0416 E-score
ACATACAA	-0.137 E-score
AGGCAGCG	-0.205 E-score
ATATGCGC	0.27 E-score
CGCTTCCC	-0.0926 E-score
AAGCAGAA	-0.0948 E-score
AATCTCCA	0.0639 E-score
CGCATCAA	-0.0168 E-score
AAAGTCCT	-0.24 E-score
GCGTTGTA	-0.0943 E-score

Sequence	binding signal
CCGATGAG	0.173 E-score
ACTCCACT	-0.0647 E-score
GTGGTGCA	-0.199 E-score
GATACCCA	0.476 E-score
GCCACTAA	-0.146 E-score
GCGTGTAA	-0.0171 E-score
AGTCCCAA	-0.211 E-score
ACTTATCT	0.138 E-score
ACGGATCC	0.386 E-score
AGACCTCA	-0.197 E-score
GGTGCCAA	-0.0189 E-score
GAGCACCC	0.165 E-score
CGTTAGGC	-0.0658 E-score
CTGGTTAC	-0.172 E-score
CACACCTC	0.267 E-score
ATCGTCCG	0.135 E-score
TATTCCAA	0.106 E-score
GTTGAGAA	-0.0667 E-score
GGTAACGA	0.128 E-score
CAAGGCGA	-0.0927 E-score
ATGTGCCC	-0.0537 E-score
GGGTTACA	0.0369 E-score
TAGCGTGA	-0.0844 E-score
AGTTCTCG	-0.139 E-score
CCGTTGCG	-0.0425 E-score

Sequence	binding signal
CATTATCA	0.133 E-score
CCGTCGAC	-0.149 E-score
ACCCGCTG	0.0161 E-score
CTTTTTTA	-0.232 E-score
GAACGTAC	-0.173 E-score
TAATGTCA	-0.237 E-score
AGTAAACA	-0.0318 E-score
CAAGTGTC	-0.131 E-score
CCGGTACC	0.0853 E-score
ACCCCAAA	0.186 E-score
TTCACGAA	-0.279 E-score
CCTCTTAA	-0.0528 E-score
ACCCGAAT	0.131 E-score
CAGATCTG	0.216 E-score
CCACGTCG	-0.0838 E-score
AGATAAGG	0.102 E-score
TACGTAAA	-0.25 E-score
ATCCAGTG	0.259 E-score
CGTTTCAA	-0.0446 E-score
AAAATTGC	-0.164 E-score
AACAAGCG	-0.102 E-score
CCTTTTCA	-0.0436 E-score
TCACGTAA	0.0646 E-score
ATTAGAGA	-0.0906 E-score
CGCAAGAC	-0.0946 E-score

Sequence	binding signal
CGCGATGA	0.0874 E-score
AAAATACG	0.116 E-score
ACTCGCTC	-0.15 E-score
CTTGGCTA	-0.0874 E-score
CATATGAG	0.19 E-score
GCACCAAA	-0.0677 E-score
AACACGTT	-0.151 E-score
GGAGGGTA	0.295 E-score
CAACTCTG	-0.0195 E-score
AACTATCG	0.149 E-score
AAGATAAC	0.00477 E-score
AAACGTAA	-0.322 E-score
AGATTTGG	-0.138 E-score
AGGGATAC	0.415 E-score
ACCCGATG	0.138 E-score
CCTGTGTA	-0.0314 E-score
CCCGAAAC	-0.0573 E-score
CGAGCACG	-0.0291 E-score
CTACCTCA	-0.204 E-score
AAGACCGT	-0.132 E-score
CACCAGAC	0.219 E-score
CGCCAGGA	-0.0391 E-score
TCCAGGGA	0.0659 E-score
GTGAAAAC	-0.236 E-score
ACCGTTAA	-0.09 E-score

Sequence	binding signal
GACTATGC	0.0479 E-score
CCCCTAGC	-0.0317 E-score
ATTCTGTA	0.0169 E-score
AGCGACAG	-0.133 E-score
TTCTGCAA	-0.0641 E-score
CCTTCCAA	-0.201 E-score
CGCCTGCA	-0.0423 E-score
CGCTTTTC	-0.113 E-score
ATGGTTTA	-0.00407 E-score
AACAGGGA	-0.028 E-score
GGATAGCC	0.35 E-score
CCAGAAGC	-0.121 E-score
GGTATTGA	0.386 E-score
CCTAAACG	-0.282 E-score
GATATAAC	0.316 E-score
AGGCACGC	-0.185 E-score
CACCGTCG	0.0527 E-score
GACGAGTA	-0.0154 E-score
AGGTTGAT	0.106 E-score
CGTCCGCA	-0.162 E-score
GATCGACC	0.162 E-score
CACCGTAA	0.0371 E-score
ACATTTCA	-0.108 E-score
CGGGGCAG	-0.0556 E-score
CAGGCTAC	-0.0114 E-score

Sequence	binding signal
GAGCCTGA	-0.0603 E-score
AAGCCATG	-0.0651 E-score
TAGACCTA	0.0118 E-score
GACTGGCA	-0.306 E-score
AGAGTTTG	-0.0975 E-score
AATAGCAC	0.0402 E-score
GGACCCGA	-0.0718 E-score
ATGGTTCG	-0.056 E-score
CTGCTAGC	-0.128 E-score
ACCAGCAA	-0.178 E-score
AAGCATCG	-0.137 E-score
CAGCACGA	-0.0264 E-score
CTAGAGAG	-0.0884 E-score
GGAGGCCC	-0.291 E-score
ACGGTAGG	-0.00813 E-score
GATGGGGC	-0.0523 E-score
CCGTCTGC	-0.0576 E-score
AGATTCAG	-0.226 E-score
GCCCCAAC	-0.0945 E-score
GGAGTACA	0.0626 E-score
GACGGTAC	0.0329 E-score
CATTGAAG	-0.169 E-score
